# Source: the supplement of paper PMC8728848
# Some of the results follow.
# B1: Unk16A (Cellvibrio mixtus), Q336L6 (protein)
# chain: VAYNTTGASSSAASSSAPSSASSSSSSAAPVLLSQGRPVTASSNFQPAANAVDGNGGTRWESTHGVSPSWIMVDLGSSKNLSQVIIDWEAANAANYLVQASNNGMSWTTLKIITTGAFGDRTDTHSVAGNYRYVRIYATARSAGNQWGYSIWELKITGN
# Columns and labels:
# Assay in all cases: glycan array binding signal (z-score within array); higher = stronger binding
# Conditions in all cases: glycan notation: IUPAC condensed, linker removed
# [1] = molecular target: Glc(b1-2)Glc(b1-2)Glc(b1-2)Glc(b1-2)Glc(b1-2)Glc(b1-2)Glc(b1-2)Glc(b1-2)Glc(b1-2)Glc(b1-2)Glc
# Procedure, shortened: (§1)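 From the Consortium for Functional Glycomics database, 3228 arrays were curated, keeping only those whose protein sequence was available. Binding is given as a within-array Z-score averaged across arrays sharing a protein sequence and across linkers. Negative Z-scores can be read as non-binding.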
# [2] = molecular target: Glc(b1-2)Glc(b1-2)Glc(b1-2)Glc(b1-2)Glc(b1-2)Glc(b1-2)Glc(b1-2)Glc(b1-2)Glc(b1-2)Glc(b1-2)Glc(b1-2)Glc
# Procedure, shortened: as §1
# [3] = molecular target: Glc(b1-2)Glc(b1-2)Glc(b1-2)Glc(b1-2)Glc(b1-2)Glc(b1-2)Glc(b1-2)Glc(b1-2)Glc(b1-2)Glc(b1-2)Glc(b1-2)Glc(b1-2)Glc
# Procedure, shortened: as §1
# Glc(b1-3)Glc = molecular target: Glc(b1-3)Glc
# Procedure, shortened: as §1
# Glc(b1-3)Glc(b1-3)Glc = molecular target: Glc(b1-3)Glc(b1-3)Glc
# Procedure, shortened: as §1
# [4] = molecular target: Glc(b1-3)Glc(b1-3)Glc(b1-3)Glc
# Procedure, shortened: as §1
# [5] = molecular target: Glc(b1-3)Glc(b1-3)Glc(b1-3)Glc(b1-3)Glc
# Procedure, shortened: as §1
# [6] = molecular target: Glc(b1-3)Glc(b1-3)Glc(b1-3)Glc(b1-3)Glc(b1-3)Glc
# Procedure, shortened: as §1
# [7] = molecular target: Glc(b1-3)Glc(b1-3)Glc(b1-3)Glc(b1-3)Glc(b1-3)Glc(b1-3)Glc
# Procedure, shortened: as §1
# [8] = molecular target: Glc(b1-3)Glc(b1-3)Glc(b1-3)Glc(b1-3)Glc(b1-3)Glc(b1-3)Glc(b1-3)Glc
# Procedure, shortened: as §1
# [9] = molecular target: Glc(b1-3)Glc(b1-3)Glc(b1-3)Glc(b1-3)Glc(b1-3)Glc(b1-3)Glc(b1-3)Glc(b1-3)Glc
# Procedure, shortened: as §1
# [10] = molecular target: Glc(b1-3)Glc(b1-3)Glc(b1-3)Glc(b1-3)Glc(b1-3)Glc(b1-3)Glc(b1-3)Glc(b1-3)Glc(b1-3)Glc
# Procedure, shortened: as §1
# [11] = molecular target: Glc(b1-3)Glc(b1-3)Glc(b1-3)Glc(b1-3)Glc(b1-3)Glc(b1-3)Glc(b1-3)Glc(b1-3)Glc(b1-3)Glc(b1-3)Glc
# Procedure, shortened: as §1
# [12] = molecular target: Glc(b1-3)Glc(b1-3)Glc(b1-3)Glc(b1-3)Glc(b1-3)Glc(b1-3)Glc(b1-3)Glc(b1-3)Glc(b1-3)Glc(b1-3)Glc(b1-3)Glc
# Procedure, shortened: as §1
# [13] = molecular target: Glc(b1-3)Glc(b1-3)Glc(b1-3)Glc(b1-3)Glc(b1-3)Glc(b1-3)Glc(b1-3)Glc(b1-3)Glc(b1-3)Glc(b1-3)Glc(b1-3)Glc(b1-3)Glc
# Procedure, shortened: as §1
# [14] = molecular target: Glc(b1-3)Glc(b1-3)Glc(b1-3)Glc(b1-3)Glc(b1-3)Glc(b1-3)Glc(b1-3)[Glc(b1-6)]Glc(b1-3)Glc
# Procedure, shortened: as §1
# [15] = molecular target: Glc(b1-3)Glc(b1-3)Glc(b1-3)Glc(b1-3)Glc(b1-3)Glc(b1-3)[Glc(b1-6)]Glc(b1-3)Glc(b1-3)Glc
# Procedure, shortened: as §1
# [16] = molecular target: Glc(b1-3)Glc(b1-3)Glc(b1-3)Glc(b1-3)[Glc(b1-6)]Glc(b1-3)Glc(b1-3)Glc(b1-3)Glc(b1-3)Glc
# Procedure, shortened: as §1
# [17] = molecular target: Glc(b1-3)Glc(b1-3)Glc(b1-3)[Glc(b1-6)]Glc(b1-3)Glc(b1-3)Glc(b1-3)Glc(b1-3)[Glc(b1-6)]Glc(b1-3)Glc
# Procedure, shortened: as §1
# [18] = molecular target: Glc(b1-3)Glc(b1-3)[Glc(b1-6)]Glc(b1-3)Glc(b1-3)Glc(b1-3)Glc(b1-3)Glc(b1-3)Glc(b1-3)Glc
# Procedure, shortened: as §1
# Glc(b1-3)Glc(b1-4)Glc = molecular target: Glc(b1-3)Glc(b1-4)Glc
# Procedure, shortened: as §1
# [19] = molecular target: Glc(b1-3)Glc(b1-4)Glc(b1-4)Glc
# Procedure, shortened: as §1
# [20] = molecular target: Glc(b1-3)Glc(b1-4)Glc(b1-6)Glc(b1-4)Glc
# Procedure, shortened: as §1
# [21] = molecular target: Glc(b1-3)[Glc(b1-6)]Glc(a1-3)Glc(b1-3)[Glc(b1-6)]Glc
# Procedure, shortened: as §1
# [22] = molecular target: Glc(b1-3)[Glc(b1-6)]Glc(b1-3)Glc(b1-3)Glc(b1-3)Glc(b1-3)Glc(b1-3)Glc(b1-3)Glc
# Procedure, shortened: as §1
# Glc(b1-4)Glc = molecular target: Glc(b1-4)Glc
# Procedure, shortened: as §1
# Glc(b1-4)Glc(b1-3)Glc = molecular target: Glc(b1-4)Glc(b1-3)Glc
# Procedure, shortened: as §1
# [23] = molecular target: Glc(b1-4)Glc(b1-3)Glc(b1-4)Glc
# Procedure, shortened: as §1
# Glc(b1-4)Glc(b1-4)Glc = molecular target: Glc(b1-4)Glc(b1-4)Glc
# Procedure, shortened: as §1
binder,measurement,setting,value
B1,glycan array binding signal (z-score),[1],2.77
same,glycan array binding signal (z-score),[2],2.06
same,glycan array binding signal (z-score),[3],2.47
same,glycan array binding signal (z-score),Glc(b1-3)Glc,-0.518
same,glycan array binding signal (z-score),Glc(b1-3)Glc(b1-3)Glc,-0.3
same,glycan array binding signal (z-score),[4],0.752
same,glycan array binding signal (z-score),[5],0.669
same,glycan array binding signal (z-score),[6],0.423
same,glycan array binding signal (z-score),[7],0.237
same,glycan array binding signal (z-score),[8],1.73
same,glycan array binding signal (z-score),[9],0.996
same,glycan array binding signal (z-score),[10],0.922
same,glycan array binding signal (z-score),[11],0.917
same,glycan array binding signal (z-score),[12],1.49
same,glycan array binding signal (z-score),[13],0.753
same,glycan array binding signal (z-score),[14],1.06
same,glycan array binding signal (z-score),[15],0.531
same,glycan array binding signal (z-score),[16],0.922
same,glycan array binding signal (z-score),[17],0.746
same,glycan array binding signal (z-score),[18],1.63
same,glycan array binding signal (z-score),Glc(b1-3)Glc(b1-4)Glc,-0.256
same,glycan array binding signal (z-score),[19],-0.094
same,glycan array binding signal (z-score),[20],0.467
same,glycan array binding signal (z-score),[21],4.32
same,glycan array binding signal (z-score),[22],0.735
same,glycan array binding signal (z-score),Glc(b1-4)Glc,-0.546
same,glycan array binding signal (z-score),Glc(b1-4)Glc(b1-3)Glc,-0.176
same,glycan array binding signal (z-score),[23],-0.005
same,glycan array binding signal (z-score),Glc(b1-4)Glc(b1-4)Glc,-0.37
